# Hit rate of the full screen: of about 360,000 compounds, about 6,000 (1.7%) were called active. Inconclusive means that the source gave no clear call. Such entries were picked first, then a sample of the others. Calls follow the shape of the dose curve; as a rule, active = well fitted cell-killing curve with a large enough effect; inconclusive = small, poorly fitted or top-dose-only effect, or effect the other way; inactive = flat fitted curve, though single readings scatter. Potencies of inconclusive entries are left out as doubtful fits.
# Assay: qHTS for induction of synthetic lethality in tumor cells producing 2HG: qHTS for the HT-1080-NT fibrosarcoma cell line;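 also: NT is the 2HG producing partner of a matched IDH1 knockdown line; nearly all actives have a fitted effect of over 55% in size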;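 as to activity, negative = less viability: 0% = DMSO-treated cells and -100% = media-only wells without cells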
# Details: HT-1080-NT fibrosarcoma viability, CellTiter-Glo ATP luminescence, 48 h; activity, negative = less viability: at 46.1 µM (top of the series) unless noted
# Procedure, shortened: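 Viability by CellTiter-Glo luminescence after 48 h compound exposure at 37C of HT-1080-NT cells (750/well, RPMI, 5% FBS). % activity scaled between DMSO wells and medium-only wells, then curve-fitted and categorized by curve class.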
# Potency is read from the fitted curve at half-maximal effect; tags tell the direction and shape of the fitted curve.
SMILES,Potency,"activity, negative = less viability"
CCC(=O)Nc1ccc2c(c1)Cc1cc(NC(=O)CC)ccc1-2,"inconclusive [cytotoxic, single point]",–
COc1cc(CN2C[C@@H](CO)O[C@@H](n3cnc4c(N(C)C)ncnc43)C2)cc(OC)c1OC,–,inactive: -0.0113%
Cc1cc(OC(C)C(=O)NCC2CCC(C(=O)O)CC2)c2c(C)cc(=O)oc2c1 (configuration not stated),–,inactive: 1.26%
Cc1cc(Cl)c2oc(C(=O)N(C)CCCCN3CCOCC3)c(C)c2c1,"inconclusive [cytotoxic, single point]",–
Cc1cc(C)nc(OC(C(=O)O)C(OCCc2ccccc2)(c2ccc(F)cc2)c2ccc(F)cc2)n1 (configuration not stated),–,inactive: -27.5%
FC(F)Oc1ccc(NC(=S)NNc2ccnc3cc(Cl)ccc23)cc1,active: 25.9 µM,–
CC(C)Cn1nc(C(=O)Nc2nnc(C3CC3)s2)c2ccccc2c1=O,–,inactive: 1.82%
COc1cc2c(cc1NC(=O)CCCCCN1C(=O)CCC1=O)oc1ccccc12,–,inactive: -2.92%
Cc1ccc(NC(=S)N/N=C/c2c(C)[nH]c3ccccc23)cc1,"inconclusive [cytotoxic, single point]",–
CCN(CC)S(=O)(=O)c1ccc(NC(=O)CSc2nnc3c(n2)[nH]c2ccccc23)cc1,active: 12.6 µM,–
COc1ccc2c(c1)C(=O)N1[C@H]3c4cc(Cl)ccc4OC[C@@H]3[C@H](c3ccccc3)[C@]1(C)C(=O)N2,active: 6.51 µM,–
C[C@H](CO)N1C[C@H](C)[C@@H](CN(C)Cc2ccncc2)OCc2cnnn2CCCC1=O,"inconclusive [rising, partial curve]",–
O=S(=O)(c1c(Cl)cc(Br)cc1Cl)N1CCN(C(=S)NC2CC2)CC1,–,inactive: -9.83%
COc1ccc(OC)c(NC(=O)c2cc3oc4ccccc4c3cc2O)c1,"inconclusive [cytotoxic, single point]",–
Cc1ccc(S(=O)(=O)N2C[C@@H](C)[C@]3(C2)[C@H](O)[C@H](OC(=O)Nc2cccs2)C[C@H]2C(=O)N(c4ccccc4)C(=O)[C@H]23)cc1,"inconclusive [cytotoxic, single point]",–
Cc1[nH]c(C)c(S(=O)(=O)NCCc2ccc(S(N)(=O)=O)cc2)c1C(=O)N1CCCC1,"inconclusive [rising, single point]",–
CN(C)CC(=O)N1c2ccccc2CCc2ccc(NC(=O)c3ccc(N)cc3)cc21,–,inactive: -5.48%
COc1ccc(NS(=O)(=O)c2cc(NC(=O)[C@@H](NC(=O)c3ccccc3)C(C)C)ccc2C)cc1,"inconclusive [cytotoxic, partial curve]",–
CCNC(=O)C1(C)CCCN(C(=O)c2ccccc2Br)C1 (configuration not stated),–,inactive: 15.8%
CC(NCc1cc(Br)ccc1OCC(N)=O)C12CC3CC(CC(C3)C1)C2 (configuration not stated),–,inactive: -19.7%
COc1ccccc1N=c1oc2cc(O)ccc2cc1C(=O)NCC1CCCO1 (configuration not stated),–,inactive: -1.04%
OC(CCN1CCOCC1)c1ccccc1 (configuration not stated),–,inactive: 10.3%
CCOC(=O)c1c(NC(=S)N2CCCCC2)sc2c1CCN(C(=O)OCC)C2,"inconclusive [cytotoxic, single point]",–
Cc1cccc2nc(-c3ccco3)c(Nc3ccc4c(c3)OCCO4)n12,–,inactive: 26.4%

SMILES,Potency,"activity, negative = less viability"
CCOc1cc(S(=O)(=O)n2nc(C)cc2C)ccc1Br,–,inactive: -5.26%
Nc1ccccc1SC(CC(=O)c1ccccc1)c1cccc([N+](=O)[O-])c1 (configuration not stated),"inconclusive [cytotoxic, single point]",–
COc1ccccc1C(=O)Nc1ccc2c(c1)nc(CCNC(=O)c1ccco1)n2C,"inconclusive [cytotoxic, full curve]",–
CC(=O)Oc1ccc(-c2ccc(C(=O)NCCc3ccc(S(N)(=O)=O)cc3)cc2)cc1,"inconclusive [cytotoxic, partial curve, poor fit]",–
O=C(c1ccccn1)c1conc1C(=O)c1ccc(Br)cc1,–,inactive: -1.36%
c1ccc2c(c1)oc1c(-c3cccc4nccn34)cccc12,"inconclusive [cytotoxic, single point]",–
CCCCCCCCCCOC(=O)Cn1c(COc2ccccc2C)[n+](C)c2ccccc21,active: 23.1 µM,–
CN(CC(=O)Nc1ccccc1Br)C(=O)c1ccccc1OCc1ccc(Cl)cc1,–,inactive: -1.89%
COc1ccc(C(=O)CC2SC(N)=NC2=O)cc1 (configuration not stated),"inconclusive [rising, single point]",–
Cc1ccc(-c2nnc(NC(=O)c3ccc([N+](=O)[O-])o3)o2)c(C)c1,"inconclusive [cytotoxic, single point]",–
C[C@@H](CO)NC(=O)c1ccc2c3n(nc2c1)-c1ccccc1CO3,"inconclusive [cytotoxic, partial curve]",–
COc1cccc(C(C)(O)c2nc(-c3ccc(OC)nc3)cs2)c1 (configuration not stated),"inconclusive [cytotoxic, single point]",–
CCOC(=O)C1=C(C)N=c2sc(=Cc3cc(Cl)c(OCC(=O)O)c(Cl)c3)c(=O)n2C1c1cccc(OC)c1 (configuration not stated),active: 25.9 µM,–
O=C(c1cnc2sccn2c1=O)N1CCN(c2ccccc2Cl)CC1,"inconclusive [rising, single point]",–
COc1cc(NC(=O)c2ccccc2F)ccc1NC(=O)c1cc2ccccc2o1,–,inactive: -6.73%
CCOC(=O)C1=C(C)NC(=O)NC1c1ccc(-c2ccc(Cl)cc2)o1 (configuration not stated),–,inactive: -23.7%
Cc1ccccc1/C=C1\C(=O)Nc2ccc(F)cc21,"inconclusive [cytotoxic, single point]",–
C=C(C)Cn1c(N2CCN(c3ccc(OC)cc3)CC2)nc2c1c(=O)n(C)c(=O)n2C,–,inactive: -15.6%
CCC(C(=O)O)N1C(=O)/C(=C/C(C)=C/c2ccccc2)SC1=S (configuration not stated),–,inactive: -6.95%
Cc1cc(C(=O)COC(=O)CC2Sc3ccccc3NC2=O)c(C)n1-c1ccc(Br)cc1 (configuration not stated),–,inactive: -3.18%
COc1cccc(-c2cccc(NC(=O)C3CCN(C4CCC4)CC3)c2)c1,–,inactive: 13.2%
O=C(c1cccc(Cl)c1)N1CCCC(c2ccc(Cl)cc2)=N1,"inconclusive [cytotoxic, single point]",–
COCCNC(=S)N1CCC(c2nc(-c3ccc(N(C)C)cc3)no2)CC1,–,inactive: -0.24%
